Reference: a collection of fitness landscapes (doi:10.1126/science.1257360)
The list shows a part of the results.

B1: PhoQ; a variant is named by its letters at X, in order, P23837 (parent)
chain: MKKLLRLFFPLSLRVRFLLATAAVVLVLSLAYGMVALIGYSVSFDKTTFRLLRGESNLFYTLAKWENNKLHVELPENIDKQSPTMTLIYDENGQLLWAQRDVPWLMKMIQPDWLKSNGFHEIEADVNDTSLLLSGDHSIQQQLQEVREDDDDAEMTHSVAVNVYPATSRMPKLTIVVVDTIPVELKSSYMVWSWFIYVLSANLLLVIPLLWVAAWWSLRPIEALAKEVRELEEHNRELLNPATTRELTSLVRNLNRLLKSERERYDKYRTTLTDLTHSLKTPLXXLQXXLRSLRSEKMSVSDAEPVMLEQISRISQQIGYYLHRASMRGGTLLSRELHPVAPLLDNLTSALNKVYQRKGVNISLDISPEISFVGEQNDFVEVMGNVLDNACKYCLEFVEISARQTDEHLYIVVEDDGPGIPLSKREVIFDRGQRVDTLRPGQGVGLAVAREITEQYEGKIVAGESMLGGARMEVIFGRQHSAPKDE

Variants of: B1
Experiment: enrichment ratio after two sorts for PhoP signalling (ratio (wild type AVST 3.29)); higher = more functional
Conditions: with PhoP (E. coli)

Variant | enrichment ratio
EGPR | ≤ 0.25
SYSK | ≤ 0.25
GSGP | ≤ 0.25
HVYP | ≤ 0.25
YACW | ≤ 0.25
VAYF | ≤ 0.25
SYWH | ≤ 0.25
TYWL | ≤ 0.25
TRVR | ≤ 0.25
TFTL | 8.74
NRPS | ≤ 0.25
FLDG | ≤ 0.25
PMIS | ≤ 0.25
SQTK | ≤ 0.25
HLRA | ≤ 0.25
LWGM | ≤ 0.25
FPTW | ≤ 0.25
QDTE | ≤ 0.25
RCFG | ≤ 0.25
FAFQ | ≤ 0.25
WDVT | ≤ 0.25
PIYI | ≤ 0.25
SHRQ | ≤ 0.25
MQLG | 22
HSCP | ≤ 0.25

Variant | enrichment ratio
RTPA | ≤ 0.25
EERR | ≤ 0.25
DTHW | ≤ 0.25
VDAV | ≤ 0.25
TVPQ | ≤ 0.25
VMLA | ≤ 0.25
GHWT | ≤ 0.25
KQYL | ≤ 0.25
HTAG | ≤ 0.25
RQDF | ≤ 0.25
VNDA | ≤ 0.25
KQWW | ≤ 0.25
MIQF | ≤ 0.25
IRMI | ≤ 0.25
WYHL | ≤ 0.25
NTKD | ≤ 0.25
LTIM | ≤ 0.25
KVPH | ≤ 0.25
EELF | ≤ 0.25
SCDP | ≤ 0.25
KAML | ≤ 0.25
MMMG | ≤ 0.25
WFIG | ≤ 0.25
NHGP | ≤ 0.25
MDNM | ≤ 0.25

Variant | enrichment ratio
IYGH | ≤ 0.25
TYDS | ≤ 0.25
GKAI | ≤ 0.25
REVR | ≤ 0.25
VYFP | ≤ 0.25
TPRK | ≤ 0.25
YDHA | ≤ 0.25
PRLG | ≤ 0.25
WNPP | ≤ 0.25
EKVS | ≤ 0.25
AFDL | ≤ 0.25
KYKI | ≤ 0.25
NDNN | ≤ 0.25
QHQK | ≤ 0.25
RVTF | ≤ 0.25
SNWC | ≤ 0.25
PGAG | ≤ 0.25
KRPP | 1.72
NAVF | ≤ 0.25
NPFI | ≤ 0.25
QIIN | ≤ 0.25
MTHS | 0.279
KQHM | ≤ 0.25
YDFV | ≤ 0.25
NLES | ≤ 0.25

Variant | enrichment ratio
MCHK | ≤ 0.25
LNGE | ≤ 0.25
PWDH | ≤ 0.25
PCNL | ≤ 0.25
RCYI | ≤ 0.25
TSYM | 7.76
QYFL | ≤ 0.25
SWMF | ≤ 0.25
QFTH | ≤ 0.25
GCSS | 5.47
QYAL | ≤ 0.25
YIMW | ≤ 0.25
TMKD | ≤ 0.25
KNDT | ≤ 0.25
HWYC | ≤ 0.25
QTFS | ≤ 0.25
KMAE | ≤ 0.25
SYSI | 0.303
YYIR | ≤ 0.25
TYVA | ≤ 0.25
PFNC | ≤ 0.25
ANAW | ≤ 0.25
PPNV | ≤ 0.25
SKFI | ≤ 0.25
MSMK | ≤ 0.25

Variant | enrichment ratio
FRLW | ≤ 0.25
LGLK | ≤ 0.25
VQNI | ≤ 0.25
MFKK | ≤ 0.25
EGCC | ≤ 0.25
FRVP | ≤ 0.25
MFAP | ≤ 0.25
WPMQ | ≤ 0.25
EGGT | ≤ 0.25
RRHS | ≤ 0.25
IQSY | ≤ 0.25
NHVS | ≤ 0.25
FFKH | ≤ 0.25
VLYM | ≤ 0.25
VPCA | ≤ 0.25
IFES | ≤ 0.25
YVVW | ≤ 0.25
SQGG | 6.89
MSQD | ≤ 0.25
NIVC | ≤ 0.25
LSCG | ≤ 0.25
PRTI | ≤ 0.25
DCYL | ≤ 0.25
VHHP | ≤ 0.25
MLWC | ≤ 0.25

Variant | enrichment ratio
SMWR | ≤ 0.25
AHRY | ≤ 0.25
GKQP | ≤ 0.25
IESA | ≤ 0.25
GCTP | ≤ 0.25
WYKW | ≤ 0.25
SGKC | ≤ 0.25
IEYA | ≤ 0.25
NSII | ≤ 0.25
NDTA | ≤ 0.25
LCHF | 0.306
LSPM | ≤ 0.25
GPSK | ≤ 0.25
IVWT | ≤ 0.25
DSEA | ≤ 0.25
RDCQ | ≤ 0.25
KNTF | ≤ 0.25
DFHM | ≤ 0.25
RVSS | ≤ 0.25
VYLP | ≤ 0.25
PHGI | ≤ 0.25
ERVP | ≤ 0.25
DKIC | ≤ 0.25
QLWW | ≤ 0.25
FAQN | ≤ 0.25

Variant | enrichment ratio
PCFQ | ≤ 0.25
MWYC | ≤ 0.25
ILMP | ≤ 0.25
MVPC | ≤ 0.25
WMWR | ≤ 0.25
DDPV | ≤ 0.25
ECDD | ≤ 0.25
VIKL | ≤ 0.25
GMGP | ≤ 0.25
LRVC | ≤ 0.25
MMGM | 1.99
HYSC | ≤ 0.25
EGIM | ≤ 0.25
GTHN | ≤ 0.25
PNMW | ≤ 0.25
TCPD | ≤ 0.25
VDLC | ≤ 0.25
FFLS | ≤ 0.25
WHCY | ≤ 0.25
SKEH | ≤ 0.25
TCCC | 10.8
VWIV | ≤ 0.25
LTGE | ≤ 0.25
WGGC | ≤ 0.25
RDND | ≤ 0.25

Variant | enrichment ratio
QYGV | ≤ 0.25
SLMR | ≤ 0.25
TMVE | ≤ 0.25
KFSN | ≤ 0.25
YPNI | ≤ 0.25
PWGM | ≤ 0.25
VFNG | ≤ 0.25
NGSH | ≤ 0.25
HSPF | ≤ 0.25
THSP | ≤ 0.25
ISIY | ≤ 0.25
THAK | ≤ 0.25
LGRY | ≤ 0.25
VCEH | ≤ 0.25
DDSN | ≤ 0.25
FMSG | ≤ 0.25
WYIN | ≤ 0.25
PYFI | ≤ 0.25
NNEY | ≤ 0.25
GGWM | ≤ 0.25
